According to PubChem BioAssay AID1347073 (National Center for Advancing Translational Sciences (NCATS), 2019):
About 200 (0.44%) of roughly 45,000 compounds were called active. Inconclusive results (about 7%) are left out. Calls come from the whole dose curve; as a rule, active = well fitted activation curve with a large enough effect; inconclusive = small, poorly fitted or top-dose-only effect; inactive = no such curve, though single readings can be large or run the other way. The list shows a part of the results.

Assay: qHTS of TDP-43 Inhibitors: NCGC Sytravon Library Screen; note: 0% is about no effect; nearly all actives have a fitted effect of over 55% in size
Details: yeast TDP-43 toxicity rescue, BacTiter-Glo growth, 24 h; series mostly up to 46.1 µM; growth rescue (activation): at the top concentration
Summary of the method: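 TDP-43-expressing yeast, pregrown in raffinose, seeded at OD600 0.02 in galactose medium with compound for 24 hr at 30 deg C. Growth read by BacTiter-Glo luminescence, so rescue of toxicity appears as activation.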

SMILES | growth rescue (activation)
Cc1nn(CCC#N)c(NC(=O)c2ccccc2)c1P(=O)(Nc1ccc(Br)cc1)N1CCOCC1 (configuration not stated) | inactive: 10.3%
OC[C@@H]1CN(Cc2ccncc2)C[C@H](n2cnc3c(NC4CCCC4)ncnc32)O1 | inactive: 2.92%
COc1cc(/C=N/N=C2/C(=O)Nc3ccccc32)ccc1O | inactive: -0.29%
CCCCn1c(=N)n(CCCOc2ccc(F)cc2)c2ccccc21 | inactive: 8.08%
Cc1cc(C)cc(C(O)c2ncc(-c3ccc4ccccc4c3)[nH]2)c1 (configuration not stated) | inactive: 1%
CCOC(=O)C1(CC2CCCCO2)CCN(C(=O)Nc2ccc(SC)cc2)CC1 (configuration not stated) | inactive: 9.58%
COc1ccccc1CNC(=O)N1CCN(S(=O)(=O)c2ccc(Cl)cc2)CC1 | inactive: 3.47%
O=C(Cn1nnc2ccccc2c1=O)Nc1cccc(S(=O)(=O)N2CCOCC2)c1 | inactive: 0.175%
COc1ccc(CCn2c(-c3ccc(F)cc3)nc3c(c(=O)c4ccccc4n3C)c2=O)cc1OC | inactive: 0.267%
COCCCNC(=S)N1CCN(C(=O)c2ccco2)CC1 | inactive: 22.6%
CN(C(=O)Cn1nnc2ccccc2c1=O)C1CCCCC1 | inactive: -33.9%
Cc1ccc(NC(=O)C2CCN(C(=O)c3ccco3)CC2)cc1C | inactive: -9.67%
COc1ccccc1-n1cnnc1SCC(=O)Nc1ccccc1 | inactive: -9.66%
Cc1cc(OCC(=O)Nc2c(C)n(C)n(-c3ccccc3)c2=O)ccc1[N+](=O)[O-] | inactive: 7.41%
CCC(C)/C(C)=N/NC(=O)CSc1nc2ccccc2[nH]1 (configuration not stated) | inactive: -1.88%
CCC(=O)N1C(=O)CCN(C(C)=O)c2ccccc21 | inactive: -18.1%
Cc1ccccc1C(=O)N1CCN(c2ccc(NC(=O)c3ccccc3[N+](=O)[O-])cc2)CC1 | inactive: 2.29%
COc1ccccc1NC(=O)CCCc1c[nH]c2ccccc12 | inactive: 27.8%
COc1ccc(/C=N\n2nnc3ccccc32)cc1 | inactive: 12.3%
Cc1ccc(NC(=O)c2ccc(C(C)(C)C)cc2)cc1[N+](=O)[O-] | inactive: 6.16%
COc1ccc(C(=O)Nc2ccc(N3CCC(C)CC3)cc2)cc1Br | inactive: 5.41%
O=C(NCc1ccccc1)C(c1cccnc1)N(C(=O)c1csnn1)c1ccccc1 (configuration not stated) | inactive: 7.49%
CCN(CC)S(=O)(=O)c1ccc(N/N=C(\C)c2ccncc2)c([N+](=O)[O-])c1 | inactive: 2.96%
CCc1nc2c(OCC(=O)C(C)(C)C)cccn2c1N(C)C(=O)C1CC1 | inactive: -2.57%
CC1(C(=O)NS(=O)(=O)c2ccc(F)cc2F)CCN1C(=O)CCc1ccccc1 (configuration not stated) | inactive: -0.502%
COc1ccc(/C=C/C(=O)NC2CCN(Cc3ccccc3)CC2)cc1OC | inactive: 5.14%

SMILES | growth rescue (activation)
C/C(=N\Nc1nc2ccc(Cl)cc2o1)c1ccccc1 | inactive: 15.2%
Cn1cccc1Cc1nnc(SCC(=O)NCCc2ccccc2)n1C | inactive: 13.8%
Cc1oc2c(c(C)cc3oc(=O)c(CC(=O)NCCC(=O)O)c(C)c32)c1C | inactive: -17.4%
O=C(Nc1ccc(O)c(-c2nc3ccccc3o2)c1)C1(c2ccc(Cl)cc2)CCCC1 | inactive: 12%
CCc1sc(NC(=O)CCC(=O)O)nc1-c1cc2ccccc2oc1=O | inactive: 7.19%
COc1ccc(-n2nc(C(=O)NCC(=O)N(C)Cc3ccccc3)c3ccccc3c2=O)cc1OC | inactive: 27.4%
O=C(Cc1ccccc1F)Nc1cccc(S(=O)(=O)N2CCOCC2)c1 | inactive: -0.45%
CCNC(=S)Nc1ccc(S(=O)(=O)Nc2cc(C)nc(C)n2)cc1 | inactive: 4.89%
CCOc1ccc(S(=O)(=O)N2CCN(C(=O)c3cccnc3)CC2)cc1 | inactive: 15%
NC(=O)c1cc(S(=O)(=O)N2CCCC2)ccc1OCCOc1ccccc1F | inactive: -1.26%
CCOC(=O)C1=C(C)N=c2s/c(=C\c3ccc(O)c([N+](=O)[O-])c3)c(=O)n2C1c1ccccc1OC (configuration not stated) | inactive: -3.45%
CCOc1ccc2cc(S(=O)(=O)n3ccnc3C)ccc2c1 | inactive: 4.2%
COc1ccc(N(CC(=O)NCc2ccco2)C(=O)CCC(=O)Nc2nccs2)c(OC)c1 | inactive: -11.8%
COc1ccc(-c2csc(/C=C/c3ccc4c(c3)OCO4)n2)cc1OC | inactive: -12.7%
O=C(NC(=S)Nc1nc(-c2cccc([N+](=O)[O-])c2)cs1)c1ccccc1Cl | inactive: -22.6%
COc1cccc(N2C(=O)CN(Cc3cc(OC)c(OC)c(OC)c3)C2=S)c1 | inactive: 2.56%
Cc1cc(C)cc(N(CCC#N)C(=O)CN2C(=O)NC3(CCCC3)C2=O)c1 | inactive: -3.93%
CC(C)(C)c1ccc(CC(=O)N2CCC2(C)C(=O)NS(=O)(=O)c2cccs2)cc1 (configuration not stated) | inactive: -8.14%
CC(C)(C)S(=O)(=O)/C(C#N)=N/Nc1ccc(S(N)(=O)=O)cc1 | inactive: 8.08%
COc1cccc(C2NC(=O)CCC2[N+](=O)[O-])c1 (configuration not stated) | inactive: -0.909%
Cc1cc(C(=O)N/N=C/c2c(C)nn(-c3ccccc3)c2C)c(C)o1 | inactive: 14.9%
O=C(COC(=O)c1ccc2c(c1)C(=O)N(Cc1ccco1)C2=O)NCC(F)(F)F | inactive: -16.1%
C=CCC(CC(O)COCCC)C(=O)NNC(=S)Nc1ccccc1 (configuration not stated) | inactive: 17%
COc1ccc(N(CC(=O)Nc2cc(C)cc(C)c2)S(=O)(=O)c2ccccc2[N+](=O)[O-])c(OC)c1 | inactive: 10.7%
CC1CCCC(C)N1C(=O)COC(=O)c1ccc(S(=O)(=O)N(C)c2ccccc2)cc1 (configuration not stated) | inactive: 6.28%
COc1ccc(N(C(=O)c2snc(C(N)=O)c2N)C(C(=O)NC2CCCC2)c2ccco2)cc1OC (configuration not stated) | inactive: -0.242%
